# Experimental data as given in paper PMC4336329 (PLoS ONE, 2015).
# The campaign covered roughly 310,000 compounds. About 2,200 (0.71%) showed an effect of 50% or more. The effect is printed as a negative number. Some of the results follow.
# Target: human ether-à-go-go-related gene (hERG) potassium channel (human, UniProt Q12809)
# Test: primary screen, population patch clamp on CHO cells stably expressing hERG
# Sequence of human ether-à-go-go-related gene (hERG) potassium channel (Q12809 whole entry, looked up): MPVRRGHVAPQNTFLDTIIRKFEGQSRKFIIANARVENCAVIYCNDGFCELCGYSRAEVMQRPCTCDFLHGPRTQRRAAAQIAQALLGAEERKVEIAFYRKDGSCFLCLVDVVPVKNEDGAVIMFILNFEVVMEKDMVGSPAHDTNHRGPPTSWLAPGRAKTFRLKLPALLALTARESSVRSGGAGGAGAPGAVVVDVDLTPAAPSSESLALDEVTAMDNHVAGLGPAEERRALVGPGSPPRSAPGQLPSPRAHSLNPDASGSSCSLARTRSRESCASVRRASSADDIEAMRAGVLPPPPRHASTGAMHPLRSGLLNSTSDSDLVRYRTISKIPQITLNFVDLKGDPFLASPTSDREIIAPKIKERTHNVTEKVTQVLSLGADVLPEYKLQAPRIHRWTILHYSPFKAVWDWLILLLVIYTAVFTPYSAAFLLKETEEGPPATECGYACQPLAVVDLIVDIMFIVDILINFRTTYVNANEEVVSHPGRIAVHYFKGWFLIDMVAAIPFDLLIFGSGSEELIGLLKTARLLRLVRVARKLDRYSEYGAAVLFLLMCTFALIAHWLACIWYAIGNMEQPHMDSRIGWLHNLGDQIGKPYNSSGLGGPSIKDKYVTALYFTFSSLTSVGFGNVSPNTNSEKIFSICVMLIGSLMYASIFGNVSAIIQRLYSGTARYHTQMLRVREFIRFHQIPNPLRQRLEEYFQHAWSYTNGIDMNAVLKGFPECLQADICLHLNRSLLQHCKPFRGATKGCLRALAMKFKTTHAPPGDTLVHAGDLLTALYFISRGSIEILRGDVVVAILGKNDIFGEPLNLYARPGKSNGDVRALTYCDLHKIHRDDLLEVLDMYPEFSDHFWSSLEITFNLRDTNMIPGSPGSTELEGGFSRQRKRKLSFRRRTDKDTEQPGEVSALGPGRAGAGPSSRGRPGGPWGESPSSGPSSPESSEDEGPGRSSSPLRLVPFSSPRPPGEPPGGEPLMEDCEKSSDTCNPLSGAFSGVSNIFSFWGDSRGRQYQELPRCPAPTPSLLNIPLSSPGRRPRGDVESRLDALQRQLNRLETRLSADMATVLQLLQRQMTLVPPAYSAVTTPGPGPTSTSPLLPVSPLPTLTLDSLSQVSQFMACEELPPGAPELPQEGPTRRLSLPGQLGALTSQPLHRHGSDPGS
row,Compound,"hERG current change (%, negative = inhibition) at 1uM"
1,Cc1ccc(NC(=O)C(C)Sc2nnc(C3CC3)n2C2CC2)cc1S(=O)(=O)N1CCOCC1 (centres unmarked),-1.92%
2,CCOC(=O)c1ccc(N2C(=O)c3n[nH]c(C)c3C2c2ccccc2)cc1 (centres unmarked),5.24%
3,CCN(c1ccccc1)S(=O)(=O)c1cccc(C(=O)OCc2nc3sc(C)c(C)c3c(=O)[nH]2)c1,-8.18%
4,c1ccc(Nc2nn[nH]n2)cc1,10.1%
5,COc1ncnc2c1oc1ccccc12,12.3%
6,O=C(Nc1ccccc1C(=O)O)C1=NN=CC1,10.4%
7,COc1ccc(N2CCN(C(=O)CCS(=O)(=O)c3ccc4c(c3)NC(=O)C(C)S4)CC2)cc1 (centres unmarked),12.8%
8,Cc1cc(Cn2nc(C(=O)NCC3CC3)cc2-c2ccccc2)on1,-4.45%
9,CCc1nnc(NC(=O)C2CCC(CNc3c(N4CCCCC4)c(=O)c3=O)CC2)s1 (centres unmarked),8.91%
10,O=C(COc1ccc(Cl)cc1)NCc1nnc(SCC(=O)NCc2ccc3c(c2)OCO3)o1,4.88%
11,Cc1ccc(C(=O)NCCc2c[nH]c3ccccc23)s1,6.36%
12,CC(C)CN1C(=O)NC(NC(=O)c2ccco2)(C(F)(F)F)C1=O (centres unmarked),2.42%
13,Cc1cc(C(=O)NP(=O)(N2CC(C)OC(C)C2)N2CC(C)OC(C)C2)c(C)n1C1CC1 (centres unmarked),7.75%
14,CNC(=O)NC(=O)C(C)OC(=O)CCCSc1nc2ccccc2s1 (centres unmarked),12.8%
15,Nc1c(C(=O)c2ccc(Cl)cc2)sc2nsc(SCCN3CCOCC3)c12,0.887%
16,CCN1CCN(c2c(Cl)cccc2NC(=O)c2ccc([N+](=O)[O-])o2)CC1,-77%
17,O=C1c2cnc3nc(SCc4ccccc4)nn3c2CC2c3ccccc3CCN12 (centres unmarked),-3.39%
18,CCn1cc(Br)c(C(=O)Nc2ccccc2C(=O)OC)n1,20.9%
19,COc1ccc2c(c1)OC13CCCCC1C2C(C(=O)c1ccccc1)C(=O)N3 (centres unmarked),5.49%
20,O=C(c1ccc(N2CCCCCC2)c([N+](=O)[O-])c1)N1CCc2ccccc21,7.31%
21,Cc1ccc(OCC(=O)Nc2ccc([N+](=O)[O-])cn2)cc1C,9.93%
22,CCCCn1c(=O)nc2n(-c3ccccc3C)c3ccccc3cc-2c1=O,4.79%
23,O=C(CCc1ccccc1)N1CCCC(Nc2ccc(F)cc2)C1 (centres unmarked),1.88%

row,Compound,"hERG current change (%, negative = inhibition) at 1uM"
1,CCOCCCNC(=O)Cn1nc(-c2ccccc2)ccc1=O,6.81%
2,O=C(CCc1nnc(CCCc2ccccc2)o1)NCCCC1CCCC1,6.26%
3,CC(=O)c1cccc(S(=O)(=O)N2CCC(n3nnc4cc(F)ccc43)CC2)c1,-47.3%
4,CC(C)CN(C(=O)CN1C(=O)NC(c2ccccc2)(c2ccccc2)C1=O)C1CCS(=O)(=O)C1 (centres unmarked),4.8%
5,CN(CCc1ccccn1)C(=S)NC(=O)c1ccco1,15.5%
6,CCc1nnc(NC(=O)CCC(=O)NC2CCCCCCC2)s1,17.4%
7,O=C1c2ccccc2NC(c2ccc(-c3cccc(Cl)c3)o2)N1O (centres unmarked),-2.04%
8,O=C(CN1CCCCCC1)NCCN1C(=O)S/C(=C\c2ccccc2Cl)C1=O,4.16%
9,CC(C)N1CC(C(=O)Nc2ccc(F)c(Cl)c2)CC1=O (centres unmarked),15.3%
10,CS(=O)(=O)c1ccc(NS(=O)(=O)c2ccc(Cl)c(C(=O)NCc3ccco3)c2)cc1,12.1%
11,COc1ccccc1Nc1nc(N)nc(CSc2nccn2C)n1,8.83%
12,COc1ccc(C(C(=O)Nc2ccc(C(C)C)cc2)N(Cc2ccco2)C(=O)CC2NC(=O)NC2=O)cc1 (centres unmarked),1.33%
13,O=C(CSc1ccc(F)cc1)N1CCN(S(=O)(=O)c2ccccc2)CC1,6.07%
14,Clc1cccc(CN2CCN(c3ncccn3)CC2)c1Cl,11.5%
15,S=c1[nH]nc(-c2ccncc2)n1Cc1ccccc1,9.32%
16,O=c1cccc2c1c1cc[nH]c3ccc(=O)n2c31,16.7%
17,COc1cc(NC(=S)NCCN2CCOCC2)cc(OC)c1OC,14.7%
18,CCOP(=O)(c1ccc(N(C)C)cc1)C(O)c1ccncc1 (centres unmarked),8.47%
19,COc1ccccc1OCC(=O)N/N=C1\CCc2ccccc21,0.112%
20,COc1ccccc1C(=O)NNC(=O)c1ccc(NS(=O)(=O)c2cccs2)cc1,11.2%
21,Cc1cccc(C)c1NC(=O)CNCC(=O)Nc1c(C)cccc1C.Cl,13.5%
22,NC(=O)c1cc2ccccc2oc1=NCc1ccccc1,7.25%
23,O=C(NCc1ccccc1)NC1(C(=O)N2CCCC2)CCCCC1,-0.637%

row,Compound,"hERG current change (%, negative = inhibition) at 1uM"
1,O=C(CN1CCC(C(=O)c2cccc(Cl)c2)CC1)Nc1ccc(C(=O)O)cc1,15.4%
2,CC(C)C1N(c2ccccc2)C(N)=C(C#N)C1(C#N)C#N (centres unmarked),10.9%
3,O=[N+]([O-])c1ccc2nc(-c3ccccc3[N+](=O)[O-])[nH]c2c1,23.6%
4,CCn1nc(C(=O)Nc2ccccc2C)c(Cl)c1Cl,16%
5,COc1ccc(C(=O)Nc2cc(C)on2)cc1[N+](=O)[O-],11.7%
6,O=C(Cc1cccs1)N1CCN(c2ccccn2)CC1,2.15%
7,O=[N+]([O-])c1cccc(N(CC2CO2)S(=O)(=O)c2ccccc2)c1 (centres unmarked),9.68%
8,O=C(NCc1cccs1)c1cccc(N2CCCC2=O)c1,14%
9,NS(=O)(=O)c1ccc(-c2ccc(/C=C3\SC(=S)N(C4CCS(=O)(=O)C4)C3=O)o2)cc1 (centres unmarked),10.9%
10,COc1ccc(C)cc1NC(=O)CN1CCN(S(=O)(=O)c2ccc3ccccc3c2)CC1,11.9%
11,O=C(CSc1oc(-c2ccco2)nc1S(=O)(=O)c1ccc(Cl)cc1)NCC1CCCO1 (centres unmarked),-2.02%
12,Cc1cccc(NC(=O)c2c(C)cc(=O)oc2C)n1,14.9%
13,Nc1c(C(=O)c2ccccc2)sc2snc(SCC(=O)c3ccccc3)c12,14.8%
14,CC(O)C[NH+]=c1cc(-c2ccccc2)oc2ccc(Cl)cc12.F[B-](F)(F)F (centres unmarked),-57%
15,O=C(NC1CCCCC1)C1(c2ccccc2)CC1(Cl)Cl (centres unmarked),7.38%
16,CC(=O)Nc1ccc(C2(O)COc3ccccc3O2)cc1 (centres unmarked),12.3%
17,COc1ccc(C2=NNC(=O)CC2)cc1,18.6%
18,COc1cccc(NC(=O)CSc2nnc(C)s2)c1,9.39%
19,Cn1c(=O)c2c(nc(CN3CCOCC3)n2CC(=O)c2ccccc2)n(C)c1=O,6.76%
20,O=C(NCCOc1ccc(Cl)cc1)c1ccco1,6.6%
21,CSCC[C@H](NC(=O)[C@H](Cc1ccccc1)n1c(=O)[nH]c2ccccc2c1=O)C(=O)N1CCC[C@@H]1C(=O)O,18.1%
22,CCOC(=O)c1ccc(Nc2c(CC)c(C)nc3ncnn23)cc1,3.85%
23,CCn1c(=O)n(CC(=O)NCc2ccco2)c(=O)c2ccccc21,13.1%

row,Compound,"hERG current change (%, negative = inhibition) at 1uM"
1,COc1ccc(CC(=O)NC(CC(=O)O)c2ccc(OC)cc2)cc1 (centres unmarked),4.84%
2,CC(=O)c1ccc(NS(=O)(=O)c2ccc(CC(C)C)cc2)cc1,8.17%
3,CCn1c(=NC(=O)CSCC(=O)Nc2nccs2)sc2ccccc21,2.45%
4,O=C(O)CSc1nc2ccccc2n1-c1ccccc1,12.2%
5,O=C(C1=C[C@H](c2ccc(C(F)(F)F)cc2)C[C@H](OCCCCO)O1)N1CCN(Cc2ccccc2)CC1,4.78%
6,O=C(CSc1ccccc1)N1CCCC(N2CCN(c3cccc(Cl)c3)CC2)C1 (centres unmarked),-17.6%
7,c1ccc2c(Nc3nncs3)c3ccccc3nc2c1,3.93%
8,CC(C)(C)NC(=O)c1cc(F)c(F)cc1Cl,15.3%
9,FC(F)(F)c1ccc(CN2C[C@@H]3C(c4ccc(Cl)nc4)C4(c5cccnc5)CC3(C4)[C@H]2c2ccccc2)cc1 (some centres unmarked),3.04%
10,S=C1NCN(Cc2ccccc2)CN1C1CCCCC1,17.2%
11,COc1ccc2[nH]cc(C3N4CC5(C)CN3CC(C)(C4)C5=O)c2c1 (centres unmarked),9.35%
12,COc1ccc2c(-c3ccccc3)cc(SCC(=O)NC(N)=O)nc2c1,13.2%
13,O=C(NNC(=O)C1CC1)Nc1ccc(Cl)cc1,8.77%
14,O=C(CSc1ccc(S(=O)(=O)N2CCOCC2)cn1)Nc1ccc(OC(F)F)cc1,5.49%
15,CCOCCOC(=O)C1=C(C)N(C)C(=O)NC1c1ccccc1F (centres unmarked),10.8%
16,COc1ccc(CCNC(=S)N2CCN(S(=O)(=O)c3cccc(F)c3)CC2)cc1,-0.622%
17,CCCN(c1nc(C)cc(OC)n1)S(=O)(=O)c1ccccc1,8.96%
18,COc1cccc(C(=O)N2CCN(S(=O)(=O)Cc3ccccc3)CC2)c1OC,6.09%
19,O=c1nc(N/N=C/c2ccco2)cn[nH]1,14.5%
20,O=C(NC1CCCCC1)N(Cc1ccccc1)Cc1ccco1,-0.633%
